Out of some 310,000 compounds screened, about 14,000 (4.5%) showed an effect of 50% or more. The effect is printed as a negative number. The list shows a part of the results.
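Also: peak tail current of the secondary pulse compared with the same well before compound.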

The target in the assay is human ether-à-go-go-related gene (hERG) potassium channel (human, UniProt Q12809). In words: primary screen, population patch clamp on CHO cells stably expressing hERG.
Chain of human ether-à-go-go-related gene (hERG) potassium channel (Q12809 whole entry, looked up): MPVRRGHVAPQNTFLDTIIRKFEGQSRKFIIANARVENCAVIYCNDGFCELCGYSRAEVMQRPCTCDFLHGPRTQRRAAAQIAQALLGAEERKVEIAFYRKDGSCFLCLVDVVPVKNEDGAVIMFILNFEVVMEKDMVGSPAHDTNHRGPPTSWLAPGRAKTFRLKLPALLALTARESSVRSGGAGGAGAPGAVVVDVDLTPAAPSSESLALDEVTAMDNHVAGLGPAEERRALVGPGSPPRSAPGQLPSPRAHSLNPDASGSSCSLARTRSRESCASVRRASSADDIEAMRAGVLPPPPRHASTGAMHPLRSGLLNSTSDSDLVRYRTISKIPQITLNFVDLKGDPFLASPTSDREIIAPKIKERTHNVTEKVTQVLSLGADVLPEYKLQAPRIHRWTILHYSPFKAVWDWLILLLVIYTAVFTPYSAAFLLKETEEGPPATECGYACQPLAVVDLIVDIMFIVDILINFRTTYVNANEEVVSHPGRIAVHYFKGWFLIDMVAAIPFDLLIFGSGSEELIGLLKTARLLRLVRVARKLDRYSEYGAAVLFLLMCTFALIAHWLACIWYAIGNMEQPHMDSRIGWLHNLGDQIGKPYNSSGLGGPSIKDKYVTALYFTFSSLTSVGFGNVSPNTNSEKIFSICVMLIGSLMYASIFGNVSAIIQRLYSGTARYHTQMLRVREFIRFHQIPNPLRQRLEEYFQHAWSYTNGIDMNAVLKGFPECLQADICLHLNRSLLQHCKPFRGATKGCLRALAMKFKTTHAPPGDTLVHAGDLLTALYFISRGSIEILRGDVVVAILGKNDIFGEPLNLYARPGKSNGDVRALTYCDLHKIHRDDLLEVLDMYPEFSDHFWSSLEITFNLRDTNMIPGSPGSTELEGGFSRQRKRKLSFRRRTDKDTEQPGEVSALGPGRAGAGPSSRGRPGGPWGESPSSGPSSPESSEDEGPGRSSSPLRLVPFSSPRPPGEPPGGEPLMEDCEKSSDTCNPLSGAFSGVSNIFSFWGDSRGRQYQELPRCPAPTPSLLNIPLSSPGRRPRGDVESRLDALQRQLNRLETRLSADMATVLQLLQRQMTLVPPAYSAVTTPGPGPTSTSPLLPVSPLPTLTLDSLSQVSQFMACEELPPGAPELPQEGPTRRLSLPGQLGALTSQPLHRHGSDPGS
Regarding `CCOC(=O)c1ccc(N/N=C/c2cc(Br)cc([N+](=O)[O-])c2O)cc1`, the “hERG current change (%, negative = inhibition) at 10uM” value turned out to be 17.9%.
Next, `CCC(Sc1nc(C)cc(=O)[nH]1)C(=O)Nc1nc(-c2ccccc2)cs1` (stereo not drawn): 2.21%.
For `Cc1cc(C)c(S(=O)(=O)Nc2ncn[nH]2)c(C)c1`, the “hERG current change (%, negative = inhibition) at 10uM” value is recorded as -0.0808%.
As for `CCC(=O)Nc1ccc(C(=O)Nc2c[nH]c(=O)[nH]c2=O)cc1`, the figure is 24.6%.
Next, `COC(=O)c1sccc1NC(=O)c1sccc1C`: 8.93%; `CCCn1cc(CN2CCC(n3nccc3NC(=O)CCOc3ccccc3)CC2)c(C)n1`: -13%.
Next, `CN(Cc1ccccc1F)C(=O)c1ccccc1Sc1ccccc1C#N`: -8.62%.
As for `Cc1cccc(CN2CCN(C(=O)c3cccc4ccccc34)CC2)c1`, the “hERG current change (%, negative = inhibition) at 10uM” value is given as 3.17%.
As for `COc1ccccc1C(c1nnnn1Cc1ccccc1)N1CCC(C(N)=O)CC1.Cl` (stereo not drawn), the figure is -7.13%; as for `O=C(O)c1cccc(N2C(=O)/C(=C/c3ccc([N+](=O)[O-])cc3)C=C2c2ccccc2)c1`, 5.76%.
Next, `CC(C#N)Sc1ncnc2sc(-c3ccccc3)cc12` (stereo not drawn): 13.3%.
Next, `CCc1cc2c(=O)c(-c3ccc4c(c3)OCO4)coc2c(CN(C)C)c1O`: 11.4%; `O=C(CCN1C(=O)c2ccccc2S1(=O)=O)Nc1ccc(F)c([N+](=O)[O-])c1`: -4.44%.
Consider `COC(=O)c1ccccc1C(=O)N1CCCC(CNC(=O)c2ccc(F)cc2)C1` (stereo not drawn), for which the “hERG current change (%, negative = inhibition) at 10uM” value came out at 11.2%.
Next, `NS(=O)(=O)c1cc(C(=O)N=Nc2c(O)[nH]c3ccccc23)ccc1Cl`: 3.39%.
Next, `Cc1cccc(NC(=S)N2CCC(c3nc4ccccc4o3)CC2)c1C`: -15%; `Cc1c(C)n(CCc2ccccc2)c2ncnc(NCCCO)c12`: -40.1%; `O=C(CN1C(=O)NC2(CCCC2)C1=O)N1CCN(c2ccccc2Cl)CC1`: 14.5%.
As for `Cc1cccc(-n2ccnc2SCC(=O)O)c1C`, the figure is 12%.
With `COc1cc2[nH]c(=O)n(CCCC(=O)NCCc3ccccc3)c(=O)c2cc1OC`, the “hERG current change (%, negative = inhibition) at 10uM” value is -8.67%.
On to `O=C(COc1ccccc1)NCc1ccccc1`, for which the “hERG current change (%, negative = inhibition) at 10uM” value is recorded as 4.64%.
For the compound `CCN(CC)CC#CC(C)OCOCC#CCOC` (stereo not drawn), the “hERG current change (%, negative = inhibition) at 10uM” value was 4.97%.
Next, `O=C(NC1CCCc2ccccc21)C1CCCN(S(=O)(=O)c2cnc[nH]2)C1` (stereo not drawn): 2.1%; `CC1=NN(c2nc(-c3ccc(C#N)cc3)cs2)C(=O)C1`: 10.3%; `COCCNC(=O)C(c1ccc(F)cc1)N(CCOC)C(=O)CCC(=O)Nc1ccccn1` (stereo not drawn): 12.6%.
As for `COc1ccccc1NC(=O)CSc1nc(=O)n(Cc2ccncc2)c2c1CCCC2`, the figure is -20%; as for `CCCCC(CCC(=O)NNC(=O)Cc1ccccc1)C(=O)O` (stereo not drawn), -4.26%; as for `Cc1cc(-c2nnc3sc(-c4ccc(Cl)cc4Cl)nn23)n[nH]1`, 8.51%.
As for `O=C(NCCNC(=O)C1CC2CCC1C2)C1CC2CCC1C2` (stereo not drawn), the “hERG current change (%, negative = inhibition) at 10uM” value is given as -3.7%.
As for `COc1ccc(-c2nn(CCC#N)cc2C(=O)Nc2cccc([N+](=O)[O-])c2)cc1OC`, the figure is -57.9%; as for `CSc1ccc(NC(=O)NCCN2CCc3ccccc3C2)cc1`, -43.6%.
`CC(C)CNC(=O)COc1ncnc2sccc12`: the “hERG current change (%, negative = inhibition) at 10uM” value is recorded as -37.4%.
Next, `CC(C)Oc1ccc(C(=O)NCc2cccnc2)cc1`: 8.89%; `O=C(Nc1ccccc1)Oc1ccccc1N1CCOCC1`: -3.33%.
Next, `CC(C)(C)c1cc(C(=O)NCc2cc(F)cc3c2OCOC3)n(Cc2ccccc2)n1`: 8.36%; `Cc1ccc(NC(=O)COC(=O)Cn2cnc3c2c(=O)n(C)c(=O)n3C)cc1Cl`: -29.2%.
As for `Cc1ccc(-c2nn(-c3cc(Cl)ccc3[N+](=O)[O-])c(=O)c3ccccc23)cc1C`, the figure is 9.05%.
On to `O=C(CN1CCN(Cc2ccc3c(c2)OCO3)CC1)N1CCc2[nH]c3ccc(F)cc3c2C1`, for which the “hERG current change (%, negative = inhibition) at 10uM” value was -62.8%.
Take `Cc1nn(CC(=O)NCCCc2ccccc2)c(=O)c2cc3occc3n12`: the “hERG current change (%, negative = inhibition) at 10uM” value came to 14.9%.
As for `Cc1cccc(NC(=O)c2sc(Cl)nc2-c2ccccc2)c1`, the figure is 28.4%; as for `Cc1ccccc1C(=O)N1CCC(C(=O)NN2C(=O)NC3(CCC(C)CC3)C2=O)CC1` (stereo not drawn), 4.33%.
Next, `CC(O)CNc1nc2sc3c(c2c(=O)n1CCc1ccccc1)CCCCC3` (stereo not drawn): 13.1%; `CN(CC(=O)Nc1ccc(Cl)c(S(=O)(=O)N2CCOCC2)c1)C(=O)c1ccc(C#N)cc1`: -21.4%.
As for `O=C(O)C1=NN(c2c(F)c(F)cc(F)c2F)C(=O)CC1`, the figure is 24.4%.
On to `CN(C)S(=O)(=O)c1cccc(NC(=O)Cn2cc(C(F)(F)F)cc(Cl)c2=O)c1`, for which the “hERG current change (%, negative = inhibition) at 10uM” value is given as 3.98%.
Next, `COC(=O)CNC(=O)c1ccccc1`: 16.4%; `COc1cccc(C2CC(c3cccs3)=NN2C(=S)Nc2ccccc2)c1OC` (stereo not drawn): 6.78%.
For `Cn1nc(C(=O)NC2CCCCC2)c2c1-c1ccccc1S(=O)(=O)C2`, the “hERG current change (%, negative = inhibition) at 10uM” value was 11.7%.
Next, `CC(C)N(Cc1nnc(-c2ccccc2Br)o1)C(=O)c1cc(Cl)nc2ccccc12`: -24.9%; `CC1CCN(C(=O)/C(=C\c2ccccc2F)NC(=O)c2ccccc2)CC1`: -52.7%.
Take `COc1cc(-c2nc3c[n+](CC(=O)c4ccccc4)ccc3n2C)cc(OC)c1OC.[Br-]`: the “hERG current change (%, negative = inhibition) at 10uM” value was determined as 0.461%.
As for `Cc1ccc(-c2nnn(CC(=O)N(c3ccccc3F)C(CC(C)C)C(=O)NCC3CCCO3)n2)cc1` (stereo not drawn), the “hERG current change (%, negative = inhibition) at 10uM” value was -13%.
As for `NC(=O)C1CCN(c2nc(-c3ccc(Br)cc3)cs2)CC1`, the “hERG current change (%, negative = inhibition) at 10uM” value stood at 10.9%.
As for `COc1cc(C(=O)N=c2sc3c(C)ccc(OC)c3n2C)cc(OC)c1OC`, the “hERG current change (%, negative = inhibition) at 10uM” value was determined as 14%.
As for `O=Cc1ccc(-n2cccn2)cc1`, the figure is 9.76%.
With `CN(C)S(=O)(=O)c1cc(NC(=O)COC(=O)C2CSC3(C)CCC(=O)N23)ccc1Cl` (stereo not drawn), the “hERG current change (%, negative = inhibition) at 10uM” value is recorded as -23%.
As for `O=C(CSc1nnc(CNC(=O)c2c(F)cccc2F)o1)NCc1ccccc1Cl`, the figure is 13.7%.
As for `Cc1noc(C)c1COc1ccc2ccc(=O)oc2c1`, the “hERG current change (%, negative = inhibition) at 10uM” value turned out to be 7.69%.
For `O=C(O)C1C2CCC(O2)C1C(=O)Nc1ccc(F)cc1` (stereo not drawn), the “hERG current change (%, negative = inhibition) at 10uM” value came to 7.03%.
Next, `COc1cccc(C(=O)Nc2cccc(NC(=O)c3ccccc3Cl)c2)c1`: -52%.
Turning to `Cc1ccc(NC(=O)COC(=O)c2ccc3c(c2)OCO3)c(C)c1`, the “hERG current change (%, negative = inhibition) at 10uM” value stood at 11.5%.
Next, `CCOc1ccccc1N(CC(=O)NCc1ccncc1)S(=O)(=O)c1ccccc1`: -14.7%; `Cc1csc(NC(=O)c2ccc(-c3ccc(Cl)cc3Cl)o2)n1`: 28.4%; `CC(=O)c1cccc(NC(=O)C(C)OC(=O)CCN=C2NS(=O)(=O)c3ccccc32)c1` (stereo not drawn): -6.54%.
Next, `CN1c2ccccc2C(=O)/C(=C\Nc2ncccn2)S1(=O)=O`: 12%.
For the compound `CCOC(=O)C1CCCN(CC(O)COCc2ccc3c(c2)OCO3)C1` (stereo not drawn), the “hERG current change (%, negative = inhibition) at 10uM” value is listed as -23.5%.
Next, `O=C(CCC(=O)N1CCN(c2ccc(C(F)(F)F)cn2)CC1)c1cccs1`: 3.53%.
As for `Cc1occc1-c1nnc(SCC(=O)Nc2ccccc2)n1CCc1ccccc1`, the figure is -67%; as for `COC(=O)CCCC(=O)N1CCCC(N(C)CCc2ccccc2)C1` (stereo not drawn), -40.6%; as for `O=C(O)c1ccc2nnn(O)c2c1`, -2.03%.
On to `CCOc1ccc(N2C(=O)CC(N(CCc3ccc(S(N)(=O)=O)cc3)C(C)=O)C2=O)cc1` (stereo not drawn), for which the “hERG current change (%, negative = inhibition) at 10uM” value is recorded as 5.89%.
Regarding `COC(=O)c1sc(NC(=O)/C=C/c2ccccc2Cl)nc1C`, the “hERG current change (%, negative = inhibition) at 10uM” value amounted to 4.08%.
As for `O=C(O)CCc1ccc(-c2ccccc2)o1`, the figure is -2.53%.
As for `CCOCC(=O)N1CCC(Cc2ccccc2)CC1`, the figure is -13.4%; as for `O=C(O)c1cc2c(s1)CCCC2`, 13.2%.
As for `C=C(C)CN(CC)C(=O)CN1C(=O)NC2(CCc3ccccc32)C1=O` (stereo not drawn), the figure is 19.7%.
For `Cc1ccc(C)c(NC(=O)CSc2nc3[nH]ncc3c(=O)[nH]2)c1`, the “hERG current change (%, negative = inhibition) at 10uM” value came to 19.9%.
As for `CCC1Sc2ccc(S(=O)(=O)N3CCN(c4ccccc4)CC3)cc2NC1=O` (stereo not drawn), the figure is 17.4%; as for `CC(C)[C@H](NC(=O)c1ccccc1Cl)C(=O)NC1CCCCCC1`, 12.2%.
As for `COc1ccc(C2CC(c3ccccc3)=NN2c2ccc(S(N)(=O)=O)cc2)cc1OC` (stereo not drawn), the figure is -6.92%; as for `CC(=O)[C@]1(O)Cc2c(O)c3c(c(O)c2[C@@H](O[C@H]2C[C@H](N)[C@H](O)[C@H](C)O2)C1)C(=O)c1ccccc1C3=O.Cl`, 17.3%.
As for `O=C(N=Nc1c(O)n(C2OC(=O)c3ccccc32)c2ccccc12)c1ccco1` (stereo not drawn), the figure is 9.68%.
`COC(=O)CNC(=O)CCc1nnc(C2(c3ccc(Cl)cc3)CCC2)o1`: the “hERG current change (%, negative = inhibition) at 10uM” value is -4.74%.
As for `C/C(=N\OC(=O)c1ccccc1)c1cc(-c2ccc(Cl)cc2)no1`, the figure is 0.835%; as for `Cc1cc(N2CC(C(=O)NCc3cccs3)CC2=O)ccc1C(C)C` (stereo not drawn), -19.5%.
For the compound `COc1cc2ccccc2cc1C(=O)NC1CCCCC1`, the “hERG current change (%, negative = inhibition) at 10uM” value is -27.7%.
Next, `CC12CC(NC(=O)N1c1cccc(C(=O)NCc3ccccc3)c1)c1ccccc1O2` (stereo not drawn): -6.4%.

Values taken from article PMC4336329 (PLoS ONE, 2015).
